Hit rate of the full screen: of about 330,000 compounds, about 4,200 (1.3%) were called active. The shares of active, inactive and inconclusive entries below differ from those in the screen. The call rests on the fitted dose curve; in most records, active means well fitted activation curve with a large enough effect; inconclusive means small, poorly fitted or top-dose-only effect; inactive means no such curve, though single readings can be large or run the other way. Potencies beside an inconclusive call are fits to weak or partial responses and may not hold up.
Assay: qHTS screen for small molecules that induce genotoxicity in human embryonic kidney (HEK293T) cells expressing luciferase-tagged ELG1; further: nearly all actives have a fitted effect of over 60% in size; on activity change, positive = activation: % of control where 0% means no effect
Conditions: HEK293T ELG1-luciferase reporter, luminescence, 16 h; series mostly up to 46 µM; activity change, positive = activation: at the top concentration
Method in brief: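 Reporter readout depends on ELG1 protein level, which increases with genetic stress. After 16 hr compound exposure at 37 °C, luciferase activity was quantified using ONE-Glo.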
Potency means the concentration at half of the fitted maximal effect; tags describe the fitted curve by direction and shape.

Compound | Potency | activity change, positive = activation
Cc1cc(NC(=O)c2ccc3c(c2)OCO3)no1 | inconclusive: 7.31 µM [activator, partial curve, poor fit] | –
COc1ccc(OC)c2sc(NC(=O)C3CC3)nc12 | inconclusive: 7.31 µM [activator, partial curve, poor fit] | –
CN(C)S(=O)(=O)c1ccc(-c2cn3ccccc3n2)cc1 | active: 5.8 µM | –
O=C(Nc1ccc(S(=O)(=O)N2CCOCC2)cc1)c1ccc2ncsc2c1 | inconclusive: 9.2 µM [activator, partial curve, poor fit] | –
CC1=NN(C(N)=S)C(=O)C1N=Nc1c(Br)cc(Br)cc1Br (stereo not given) | – | inactive: -10%
Clc1ccc2c(N/N=C/c3ccccc3Br)ccnc2c1 | inconclusive: 29.1 µM [activator, single point] | –
C/C(CC(=O)Nc1ccc(N(C)C)cc1)=N\NC(=O)c1ccccn1 | inconclusive: 23.1 µM [activator, single point] | –
O=C(Cn1cnc2c(oc3ccccc32)c1=O)c1ccccc1 | inconclusive: 6.51 µM [activator, partial curve, poor fit] | –
O=c1c(Cl)c(NC2CC2)cnn1-c1ccccc1 | inconclusive: 29.1 µM [activator, partial curve, poor fit] | –
CSc1ccc(/C=N/NC(=O)COc2ccc(Br)cc2Cl)cc1 | – | inactive: 1.86%
Nn1c(SCC(=O)Nc2cc(S(=O)(=O)N3CCOCC3)ccc2Cl)nnc1-c1cccnc1 | – | inactive: 1.75%
O=C(Nc1ccc2nn(-c3ccccc3)nc2c1)c1ccco1 | inconclusive: 8.2 µM [activator, partial curve] | –
Cc1ccc(/C=N/Nc2nc(Cl)c(Cl)cc2Cl)s1 | inconclusive: 9.2 µM [activator, partial curve] | –
c1ccc(NC2=NCCN2CCC2CCCCC2)cc1 | – | inactive: -2.28%
CN(C)c1ccc(/C=N\NC(=O)c2csnn2)cc1 | inconclusive: 5.8 µM [activator, full curve] | –
N#CC1=C(N)N2C(=C(C#N)C1c1cccc(Br)c1)Nc1ccccc12 (stereo not given) | – | inactive: -11.9%
CC(C)(C)C(=O)NC(=S)NNC(=O)c1ccc(-c2ccccc2)cc1 | inconclusive: 16.4 µM [activator, single point] | –
COc1ccc(C2=NN(C(C#N)c3ccc(OC)cc3)C(c3ccccc3)C2)cc1 (stereo not given) | inconclusive: 2.59 µM [activator, full curve] | –
COc1ccc(C(CC(=O)Nc2cc(C)ccn2)N2Cc3ccccc3C2=O)cc1 (stereo not given) | – | inactive: -4.23%
Cc1ccc2nc(-c3ccccn3)[nH]c2c1 | inconclusive: 0.231 µM [activator, full curve, poor fit] | –
